The structures appear in SMILES notation. Hit rate of the full screen: of about 48,000 compounds, about 550 (1.1%) were called active. Roughly 4% stayed inconclusive and do not appear here. Rule as the data show it: active = potency below about 15 µM; inconclusive = mostly about 16 µM to 33 µM; inactive = weaker than that. The list shows a part of the results.
Potency is read from the fitted curve at half-maximal effect.

This assay concerns the target Lysosomal acid glucosylceramidase (Homo sapiens) (UniProt P04062). The assay can be described thus: Glucocerebrosidase.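 Also: the screen sought inhibitors.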 To be noted: purified enzyme, resorufin glucoside fluorescence (screen aimed at inhibitors), 20 min; series mostly up to 77 µM. The method, boiled down: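 Compounds titrated against 0.2 nM normal enzyme, 30 uM resorufin beta-D-glucopyranoside substrate, citrate/phosphate buffer with taurocholate and tween-20, pH 5.9. Reaction ran 20 min at room temperature; fluorescence (Ex 548/Em 600) gave AC50.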
Sequence of UniProt P04062 (P04062 whole entry, looked up): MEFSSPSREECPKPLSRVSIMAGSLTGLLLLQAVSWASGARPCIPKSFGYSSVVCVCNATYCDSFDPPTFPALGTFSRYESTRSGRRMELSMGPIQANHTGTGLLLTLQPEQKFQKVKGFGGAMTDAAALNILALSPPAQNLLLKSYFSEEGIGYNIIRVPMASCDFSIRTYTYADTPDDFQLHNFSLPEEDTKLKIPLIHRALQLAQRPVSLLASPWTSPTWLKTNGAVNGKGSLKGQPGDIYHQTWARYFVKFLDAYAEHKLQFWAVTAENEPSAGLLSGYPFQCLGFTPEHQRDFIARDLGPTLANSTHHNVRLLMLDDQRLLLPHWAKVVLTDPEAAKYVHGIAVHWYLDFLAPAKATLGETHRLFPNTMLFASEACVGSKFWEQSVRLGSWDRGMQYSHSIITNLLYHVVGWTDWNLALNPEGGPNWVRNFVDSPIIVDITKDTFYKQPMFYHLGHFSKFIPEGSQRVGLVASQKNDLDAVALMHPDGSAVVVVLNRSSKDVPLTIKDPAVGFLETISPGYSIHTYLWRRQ
In the case of `CCOc1ccc(NC(=O)CSc2nc3cccnc3n2CC)cc1`, the Potency was inactive: > 76.9 µM.
For `Cc1sc(NC(=O)CSc2nc(N)n(CC(=O)c3ccccc3)n2)c(C#N)c1C` the value was inactive: > 76.9 µM.
Next, `CCOC(=O)C(C#N)C(c1cccnc1)c1c(C)[nH][nH]c1=O` (stereo not given): inactive: > 76.9 µM.
Next, `COc1cccc(Nc2c(F)c(OC)c(F)c(F)c2C(=O)O)c1`: inactive: > 76.9 µM; `CCCn1nnc(NC(=O)c2ccccc2Cl)n1`: inactive: > 76.9 µM; `COc1cccc(CNC(=O)Cn2cccc2)c1`: inactive: > 76.9 µM.
With `Cc1ccc(S(=O)(=O)NC2(C(F)(F)F)C(=O)Nc3c2c(=O)n(C)c(=O)n3C)cc1` (stereo not given), the Potency was inactive: > 76.9 µM.
Regarding `COc1ccccc1-c1nnc(N(C)C(=O)C2CCCO2)s1` (stereo not given), the Potency is inactive: > 76.9 µM.
In the case of `O=C(NC1CC2CCC(C1)N2C(=O)NC1CCCCC1)NC12CC3CC(CC(C3)C1)C2` (stereo not given), the Potency was inactive: > 76.9 µM.
With `COc1ccc2nc3oc(C(=O)NCc4cccs4)cc3cc2c1`, the Potency is inactive: > 76.9 µM.
For the compound `COCc1[nH]nc2c1C(c1ccc(OC)c(OC)c1)C(C#N)=C(N)O2` (stereo not given), the Potency was inactive: > 76.9 µM.
Turning to `CCCCn1c(=O)[nH]c(=O)c2c1nc(COc1ccc(C#N)cc1)n2CCC`, the Potency was inactive: > 76.9 µM.
Next, `CCOc1cccc(/C(O)=C2/C(=O)C(=O)N(CCOC)C2c2ccc(C)o2)c1` (stereo not given): inactive: > 76.9 µM; `Cc1nn(Cc2ccccc2Cl)c(C)c1C(=O)NCc1ccco1`: inactive: > 76.9 µM.
For `COc1ccc(Cl)cc1NC(=O)C1CCCN(c2cc(C)nc3ncnn23)C1` (stereo not given) the value was inactive: > 76.9 µM.
On to `Cc1ccc2c(c1)C(O)(CC(=O)c1ccc3c(c1)OCO3)C(=O)N2` (stereo not given), for which the Potency was inactive: > 76.9 µM.
Next, `O=C(NC1CCCCC1)c1cc(-c2ccco2)on1`: inactive: > 76.9 µM.
Next, `COCCCNC(=O)c1cc2c(=O)n3cccc(C)c3nc2n(C(C)C)c1=N`: inactive: > 76.9 µM; `CC1(C)CC(c2csc(N)n2)CCO1` (stereo not given): inactive: > 76.9 µM; `COc1c(C(=O)N2CCCC2)ccc2ccccc12`: inactive: > 76.9 µM.
For `CCN1CCN(/C=N/c2nc3c(s2)CCCC3)CC1` the value was inactive: > 76.9 µM.
`O=C(NCc1ccccc1)c1noc2c1CCCC2`: the Potency is inactive: > 76.9 µM.
Next, `CCOC(=O)C1CCN(C(=O)CNC(=O)OC(C)(C)C)CC1`: inactive: > 76.9 µM; `CN(C)S(=O)(=O)c1ccc(S(=O)(=O)N(CC(=O)Nc2ccccc2)Cc2ccco2)cc1`: inactive: > 76.9 µM.
Next, `S=c1[nH]c2ccc(Cl)cc2[nH]1`: inactive: > 76.9 µM.
